Source: patent publication US12241058B2, “Recombinant microbial system for directed evolution of glycocins and method of preparation thereof” (COUNCIL OF SCIENTIFIC & INDUSTRIAL RESEARCH, priority 2018, dated 2025)
No end group written: not given here. *: point of attachment. X1 = OC[C@H]1O[C@@H](O[C@H]2[C@H](O)[C@@H](O)[C@H](*)O[C@@H]2CO)[C@H](O)[C@@H](O)[C@@H]1O

Columns and labels:
[1] = test system: L. monocytogenes; assay: pH and heat stability, bioactivity verified using ADT assay; settings: treated for 24 hours, ADT assay of neutralized peptide solution
[2] = test system: Vibrio cholerae MTCC 3904; assay: Agar diffusion test (ADT) of cleaved neo-glycocins; format: cell-based

Substance	Bioactivity against L. monocytogenes post treatment with pH 2-10 [1]	Bioactivity against Gram negative bacteria Vibrio cholerae MTCC 3904 [2]
MASKRDCNLMKATCAGQAVTYAIHSLLNRLGGDS(X1)SDPAGCNDIVRKYCK (cysteines drawn unpaired) [SEQ ID NO: 10]	retain bioactivity	observed
MASKRDCNLMKACCAGQAVTYAIHSLLNRLGGDS(X1)SDPAGCNDIVRKYCK (cysteines drawn unpaired) [SEQ ID NO: 9, Enterocin 96, reference compound]		not
